Biological target: recombinant human histone H3.1 (human, UniProt P68431)
Assay: pull-down

B1: RAGE^[…]-His-FLAG (extracellular part of RAGE) (domain or fragment)
chain: not shown
binding result: binds
